# Results published in the supplement of paper PMC9135407.
# Where “and” joins values, the source holds several entries; their conditions need not be identical. Equal values may be shown once. Where a name gives a salt, the structure may show the parent alone. In all, about 5,800 compounds went through this assay and about 620 (11%) showed activity.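 The calls were made as follows: active = score above a cut-off or among the top three wells of a plate; in these data no inactive exceeds 0.85.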 This is a selection; strong and weak results do not stand in their true shares.
# System: primary human hepatic stellate cells (donor 1)
# Assay: scaled lipid accumulation score (0 = DMSO-like, 1 = nortriptyline-like); higher = stronger HSC inactivation (lipid re-accumulation), active = hit call of the paper
# Settings: 48 h
# [1] = library stock concentration: 80 uM
# [2] = library stock concentration: 400 uM
# [3] = library stock concentration: 1 mM
# [4] = library stock concentration: 2 mM
# [5] = library stock concentration: 3.33 mM
# [6] = library stock concentration: 10 mM
structure (smiles),measurement,setting,value
"Cc1ccc2c(c1)C(=O)C1(O)CCN(c3ccccc3)C1=N2 (single isomer, unassigned; (-)) [(-)-Blebbistatin]",scaled lipid accumulation score,[1],inactive: ≤ -0.001
same,scaled lipid accumulation score,[2],inactive: ≤ -0.001
same,scaled lipid accumulation score,[3],inactive: ≤ 0
same,scaled lipid accumulation score,[4],inactive: ≤ -0.001
same,scaled lipid accumulation score,[5],inactive: ≤ -0.009
same,scaled lipid accumulation score,[6],inactive: 0.264
O=C(OCCN1CCOCC1)C1(c2ccccc2)CCCCC1,scaled lipid accumulation score,[6],inactive: ≤ -0.055
O=C(OCCN1CCOCC1)C1(c2ccccc2)CCCCC1 [PRE-084 hydrochloride],scaled lipid accumulation score,[6],inactive: 0.001
COc1ccc(CC(C)NCC(O)c2ccc(O)c(NC=O)c2)cc1 (stereo not drawn),scaled lipid accumulation score,[6],inactive: ≤ 0
COc1ccc(CC(C)NCC(O)c2ccc(O)c(NC=O)c2)cc1 (stereo not drawn) [Formoterol hemifumarate],scaled lipid accumulation score,[6],inactive: ≤ -0.006
COc1ccc(CC(C)NCC(O)c2ccc(O)c(NC=O)c2)cc1 (stereo not drawn) [Formoterol Hemifumarate],scaled lipid accumulation score,[5],inactive: ≤ 0
same,scaled lipid accumulation score,[6],inactive: 0.066
COc1ccc(CC(C)NCC(O)c2ccc(O)c(NC=O)c2)cc1 (stereo not drawn) [Formoterol],scaled lipid accumulation score,[6],inactive: 0.227
O=C1C(c2c(O)[nH]c3ccccc23)=Nc2ccccc21,scaled lipid accumulation score,[6],inactive: 0.454
O=C1C(c2c(O)[nH]c3ccccc23)=Nc2ccccc21 [Indirubin],scaled lipid accumulation score,[5],inactive: ≤ 0
same,scaled lipid accumulation score,[6],inactive: 0.058
CS(=O)(=O)c1ccc(C(=O)Nc2ccc(Cl)c(-c3ccccn3)c2)c(Cl)c1 [Vismodegib (GDC-0449)],scaled lipid accumulation score,[5],inactive: 0.002
same,scaled lipid accumulation score,[6],inactive: ≤ 0
O=C(COc1ccc(C(=O)c2ccccc2)cc1)NC1CCN(Cc2ccccc2)CC1 [AdipoRon],scaled lipid accumulation score,[5],inactive: 0.044
same,scaled lipid accumulation score,[6],inactive: 0.271
CC1(C)CCC(c2ccc(Cl)cc2)=C(CN2CCN(c3ccc(C(=O)NS(=O)(=O)c4ccc(N[C@H](CCN5CCOCC5)CSc5ccccc5)c(S(=O)(=O)C(F)(F)F)c4)cc3)CC2)C1 [ABT-263 (Navitoclax)],scaled lipid accumulation score,[5],inactive: 0.024
same,scaled lipid accumulation score,[6],inactive: 0.048
NC(=O)c1ccccc1O [Salicylamide],scaled lipid accumulation score,[6],inactive: ≤ 0
CCOC(=O)N1CCC(=C2c3ccc(Cl)cc3CCc3cccnc32)CC1,scaled lipid accumulation score,[6],inactive: ≤ 0
CCOC(=O)N1CCC(=C2c3ccc(Cl)cc3CCc3cccnc32)CC1 [Loratidine],scaled lipid accumulation score,[6],inactive: 0.128
CCOC(=O)N1CCC(=C2c3ccc(Cl)cc3CCc3cccnc32)CC1 [Loratadine],scaled lipid accumulation score,[5],inactive: ≤ 0
same,scaled lipid accumulation score,library stock concentration: 5.2 mM,inactive: ≤ 0
same,scaled lipid accumulation score,[6],inactive: ≤ 0 and inactive: 0.008
O=C(NOCC1CC1)c1ccc(F)c(F)c1Nc1ccc(I)cc1Cl,scaled lipid accumulation score,[1],inactive: ≤ 0
same,scaled lipid accumulation score,[2],inactive: 0.008 and inactive: ≤ -0.005
same,scaled lipid accumulation score,[4],inactive: 0.026 and inactive: ≤ -0.005
same,scaled lipid accumulation score,[5],inactive: ≤ 0
same,scaled lipid accumulation score,[6],inactive: ≤ 0 and inactive: 0.497
CC(C(=O)O)c1ccc(CC2CCCC2=O)cc1 (stereo not drawn),scaled lipid accumulation score,[6],inactive: ≤ 0
CC(C(=O)O)c1ccc(CC2CCCC2=O)cc1 (stereo not drawn) [loxoprofen],scaled lipid accumulation score,[6],inactive: 0.127
COC(=O)CCCCCCC1C(O)CC(O)C1CCC(O)C#Cc1ccccc1F (stereo not drawn),scaled lipid accumulation score,[3],inactive: ≤ 0
CC[C@H]1OC(=O)[C@H](C)[C@@H](O[C@H]2C[C@@](C)(OC)[C@@H](O)[C@H](C)O2)[C@H](C)[C@@H](O[C@@H]2O[C@H](C)C[C@H](N(C)C)[C@H]2O)[C@](C)(O)C[C@@H](C)C(=O)[C@H](C)[C@@H](O)[C@]1(C)O [Erythromycin],scaled lipid accumulation score,,inactive: 0.066
same,scaled lipid accumulation score,[5],inactive: 0.027
same,scaled lipid accumulation score,[6],inactive: ≤ 0
CC[C@H]1OC(=O)[C@H](C)[C@@H](O[C@H]2C[C@@](C)(OC)[C@@H](O)[C@H](C)O2)[C@H](C)[C@@H](O[C@@H]2O[C@H](C)C[C@H](N(C)C)[C@H]2O)[C@](C)(O)C[C@@H](C)C(=O)[C@H](C)[C@@H](O)[C@]1(C)O,scaled lipid accumulation score,[6],inactive: 0.396
O=S(=O)(c1cccc2c(Cl)cccc12)N1CCCNCC1,scaled lipid accumulation score,[6],active: 1.02
CC1=C(/C=C/C(C)=C/C=C/C(C)=C/C=C/C=C(C)/C=C/C=C(C)/C=C/C2=C(C)CCCC2(C)C)C(C)(C)CCC1 [Beta Carotene],scaled lipid accumulation score,[5],inactive: ≤ 0
same,scaled lipid accumulation score,[6],inactive: ≤ 0
CCCCCCCCCCCCCC(=O)N[C@H](C)[C@@H](O)c1ccccc1 [D-erythro-MAPP],scaled lipid accumulation score,[3],inactive: ≤ 0 and inactive: 0.048
c1ccc(CC2=NCCN2)cc1 [Priscoline],scaled lipid accumulation score,[6],inactive: 0.013
c1ccc(CC2=NCCN2)cc1 [Tolazoline HCl],scaled lipid accumulation score,[5],inactive: ≤ 0
same,scaled lipid accumulation score,[6],inactive: ≤ -0.001
c1ccc(CC2=NCCN2)cc1 [Tolazoline hydrochloride],scaled lipid accumulation score,,inactive: ≤ 0
same,scaled lipid accumulation score,[6],inactive: ≤ 0
NCCCCC(=O)O [5-Aminovaleric acid hydrochloride],scaled lipid accumulation score,[6],inactive: ≤ 0
NCCCCC(=O)O [5-aminopentanoic acid hydrochloride],scaled lipid accumulation score,[6],inactive: ≤ 0
CC(C)(Oc1ccc(CCNC(=O)c2ccc(Cl)cc2)cc1)C(=O)O [Bezafibrate],scaled lipid accumulation score,,inactive: ≤ 0
same,scaled lipid accumulation score,[3],inactive: ≤ 0
same,scaled lipid accumulation score,[5],inactive: ≤ 0
same,scaled lipid accumulation score,[6],inactive: ≤ -0.001 and inactive: 0.041 and inactive: ≤ 0
CC(C)(Oc1ccc(CCNC(=O)c2ccc(Cl)cc2)cc1)C(=O)O [bezafibrate],scaled lipid accumulation score,library stock concentration: 13.8 mM,inactive: ≤ -0.021
OCCN1CCN(CCCN2c3ccccc3Sc3ccc(C(F)(F)F)cc32)CC1 [Fluphenazine hydrochloride],scaled lipid accumulation score,[6],inactive: 0.407
OCCN1CCN(CCCN2c3ccccc3Sc3ccc(C(F)(F)F)cc32)CC1 [Fluphenazine dihydrochloride],scaled lipid accumulation score,,inactive: 0.627
same,scaled lipid accumulation score,[6],inactive: ≤ -0.07
OCCN1CCN(CCCN2c3ccccc3Sc3ccc(C(F)(F)F)cc32)CC1,scaled lipid accumulation score,[6],active: 1.34
"COc1cc2c(Nc3ccc(Br)cc3F)ncnc2cc1OCC1CCN(C)CC1 [Vandetanib  (ZD6474, Zactima) (0.4 mM)]",scaled lipid accumulation score,[2],active: 1.1
"COc1cc2c(Nc3ccc(Br)cc3F)ncnc2cc1OCC1CCN(C)CC1 [Vandetanib  (ZD6474, Zactima) (2 mM)]",scaled lipid accumulation score,[4],active: 0.855
O=C(c1cc(Cc2n[nH]c(=O)c3ccccc23)ccc1F)N1CCN(C(=O)C2CC2)CC1 [Olaparib],scaled lipid accumulation score,[1],inactive: ≤ -0.0005
same,scaled lipid accumulation score,[2],inactive: ≤ -0.0045
same,scaled lipid accumulation score,[4],inactive: ≤ -0.0045
same,scaled lipid accumulation score,[6],inactive: ≤ -0.0045
O=C(c1cc(Cc2n[nH]c(=O)c3ccccc23)ccc1F)N1CCN(C(=O)C2CC2)CC1,scaled lipid accumulation score,[5],inactive: ≤ 0
same,scaled lipid accumulation score,[6],inactive: ≤ 0
